# In the supplement of paper PMC10441789:
# The list shows a part of the results. Antibody binding of pooled human sera (four to six donors per pool; dilution not stated) to peptides of the Trypanosoma cruzi antigen TSSA on microarrays. Quantile-normalised fluorescence in arbitrary units, mean of duplicate arrays; higher = more binding. No active / inactive call. The uninfected pools are read here as the healthy donors of the same country. The strongest signals lie near the top of the scale (about 60,000).
# System: pooled sera of uninfected people, Brazil
# Test: antibody binding signal (normalised fluorescence) (arbitrary fluorescence units); higher = stronger serum antibody binding to peptide
# Experimental: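 Microarray of overlapping 15-residue peptides of the four Trypanosoma cruzi TSSA reference variants and 8- to 13-residue peptides of TSSAII 24-62, probed with one serum pool per country.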
row,Sequence,antibody binding signal
1,GGTPSPSGASSGEAE,162
2,STPPGTDKKTAAGGT,1700
3,KPATGEAPSQPGA,351
4,QPGASSGEAEASSNK,124
5,PATGEAPSQPGA,326
6,GSTSSTPPSGTE,173
7,PPSGTENKPAT,1070
8,GSTSSTPPSGTENKP,559
9,PATGEAPSQPGASSG,545
10,ANGGSTSS,219
11,ASSGEAEASSNKNDG,147
12,QPGASSGEAE,115
13,APSQPGASSG,454
14,SSTPPSGTENKP,390
15,PGASSGEA,176
16,SQPGASSGEAEASSN,119
17,GTDKKTAAGEAPSPS,204
18,PSGTENKPA,744
19,PSQPGASSGEAE,108
20,PSQPGASSGEA,154

row,Sequence,antibody binding signal
1,KAAAGEAPSPSGASS,96.3
2,TANGGSTSSTPPGTD,163
3,ANGGSTISTPPSGTE,122
4,PPSGTDKKTAAGEAP,369
5,STSSTPPGTDKKTAA,221
6,GASSGEAEASS,125
7,PSGTENKPAT,682
8,TISTPPSGTDKKTAA,225
9,PPSGTENKP,395
10,ENKPATGEAPSQ,287
11,KPATGEAPSQPGASS,315
12,QPGASSGEAEASS,137
13,ANGGSTSSTP,252
14,GGSTISTPPSGTEKK,175
15,GEAPSQPGASSG,254
16,SSTPPSGTENK,268
17,PSPSGASSGEAEASS,125
18,GSTSSTPPSGTEN,236
19,APSQPGASSGEAEAS,132
20,STPPSGTENKP,417
